The record followed here is ChEMBL document CHEMBL4888484, “Replenishing the malaria drug discovery pipeline: Screening and hit evaluation of the MMV Hit Generation Library 1 (HGL1) against asexual blood stage Plasmodium falciparum ,using a nano luciferase reporter read-out” (2022).

Screen size: about 150,000 compounds; about 540 (0.36%) showed an effect of 50% or more. Some of the results follow.

For the assay, the system named is Plasmodium falciparum. The experiment in a line: Primary screen in NF54 nanoGlo assay, in single point, at 2uM, 72h; a lower Z score goes with more inhibition. Particulars: timepoint 72 hour. The assay is classed as functional, Erythrocyte.
As for `Cc1noc(C)c1CCN[C@H](C)c1ccc(F)cc1Cl`, the “% Inhibition” value worked out at 2% and the Z score is given as -0.2.

On to `CC(C)=CCN1CC2(CCN(C(=O)c3ccc4cccnc4c3)CC2)CC1=O`, for which the “% Inhibition” value is listed as -16% and the Z score is 1.58.

Consider `Cc1nn(C(C)C)c(C)c1CN1CCC[C@H](C(=O)c2cccc3ccccc23)C1`, for which the “% Inhibition” value is given as -18% and the Z score is given as 1.93.

Consider `CCn1nccc1CNC1CCC2CN(Cc3ccccc3)CC21` (stereo not drawn), for which the “% Inhibition” value is listed as 2% and the Z score is -0.18.

For `Nc1cc(C(=O)N2CCn3nc(CCC(=O)NC4CCCC4)cc3C2)n[nH]1`, the “% Inhibition” value came to 6% and the Z score is -0.99.

Turning to `CC1=NN(CC(C)C)C(=O)[C@H]1C(=O)Nc1ccccc1`, the “% Inhibition” value is reported as -3% and the Z score was 0.56.

`O=C1NCC[C@@H]1N1CCc2ccc(Br)cc21`: the “% Inhibition” value is 1% and the Z score is on record as -0.17.

`CCC=C(C)C(=O)NCCCN1CCCC1`: the “% Inhibition” value is reported as 3% and the Z score is -0.43.

On to `O=C(N[C@@H](Cc1c[nH]c2ccccc12)c1nnc2n1CCCCC2)c1cccs1`, for which the “% Inhibition” value is reported as -14% and the Z score amounted to 1.37.

Consider `COc1ccc(C2=Nc3ccc(S(=O)(=O)N4CCOCC4)cc3S(=O)(=O)N2)cc1`, for which the “% Inhibition” value turned out to be 38% and the Z score is recorded as -5.56.

As to `O=C(Nc1ccc(Cl)cc1)N1CC=CCC1`, the “% Inhibition” value was 2% and the Z score is on record as -0.48.

For `CC(C)[C@H]1C=CCN1C(=O)c1cccc(-c2cnn(CC3CC3)c2)c1`, the “% Inhibition” value was -17% and the Z score was determined as 1.71.

As for `O=C(C1CC1C1CC1)N1CCC2(CCC(O)CC2)CC1` (stereo not drawn), the “% Inhibition” value is -10% and the Z score was determined as 0.98.

In the case of `CCCn1cc(NC(=O)Cn2cc(-c3ccc4nc(C)[nH]c(=O)c4c3)cn2)nn1`, the “% Inhibition” value is recorded as -16% and the Z score was 2.31.

In the case of `COC(=O)N[C@@H](C)C(=O)N(C)Cc1ncon1`, the “% Inhibition” value came to 5% and the Z score is reported as -0.99.

Take `O=C(N[C@H]1C[C@H](c2ccc(F)cc2F)C1)c1coc(CO)c1`: the “% Inhibition” value was -8% and the Z score came to 1.46.

With `O=C(Nc1ccccc1Cl)c1cn(C[C@H](O)c2ccsc2)nn1`, the “% Inhibition” value is reported as -9% and the Z score is 1.7.

For the molecule `Cc1cc(C)n(CCC(=O)N2CCC3(CC2)C[C@@H](N(C)Cc2ccccc2)CCO3)n1`, the “% Inhibition” value is on record as -8% and the Z score was determined as 1.09.

Turning to `COc1ccc(F)cc1C(NC(=O)COc1ccccc1)[C@H]1C[C@@H](O)C1` (stereo partly drawn), the “% Inhibition” value is reported as 33% and the Z score is given as -3.59.

Regarding `Cn1cc2c(C(F)F)cc(=O)n(CCC(=O)Nc3ccccc3C#N)c2n1`, the “% Inhibition” value worked out at 32% and the Z score was -3.62.

Regarding `CCN1C[C@H](NS(=O)(=O)c2ccnn2CC)[C@@H](OC)C1`, the “% Inhibition” value turned out to be 10% and the Z score is -1.38.

Regarding `Cc1nnc(CN(C)Cc2nc(-c3cc(F)ccc3F)oc2C)o1`, the “% Inhibition” value was -15% and the Z score is 2.02.

As to `CCN(CCOc1ccc(Cl)cc1)C(=O)c1ccc2nc(C)cn2c1`, the “% Inhibition” value is on record as 21% and the Z score is listed as -2.82.

Take `CC(=O)NC1CCN(Cc2cnc3c(-c4ccccc4)cnn3c2)CC1`: the “% Inhibition” value is 4% and the Z score is given as -0.82.

Take `CC1CN(CC(=O)N(C2CC2)C(C)C(C)C)CC(C)(C)O1` (stereo not drawn): the “% Inhibition” value is recorded as -18% and the Z score was 3.38.

On to `CCn1nc(C)cc1C(=O)Nc1nc2ccc(Br)cn2n1`, for which the “% Inhibition” value is on record as -2% and the Z score amounted to 0.21.

With `Cn1cc(S(=O)(=O)NC[C@@](O)(c2cccs2)C2CC2)cn1`, the “% Inhibition” value was -18% and the Z score was determined as 3.15.

Take `C#CCNC(=O)[C@H](C)Oc1cccc(C)c1F`: the “% Inhibition” value came to 19% and the Z score is on record as -2.21.

Consider `COCCCN1CC(=O)N[C@@H]2CN(C(=O)c3cccc(C)n3)CC[C@@H]2OCc2cccc(c2)Oc2ccc(cc2OC)CCC1=O`, for which the “% Inhibition” value is listed as -15% and the Z score worked out at 2.69.

Consider `COc1ccc(N2CCN(C(=O)CN3CCN(C)C[C@@H]3C)CC2)cc1`, for which the “% Inhibition” value stood at 1% and the Z score was -0.11.

Regarding `CN(C(=O)CN1CCCCCC1=O)c1cccc2[nH]cnc12`, the “% Inhibition” value came to 7% and the Z score is recorded as -1.23.

`CCC[C@]1(CO)CCN(Cc2ccsc2C(=O)O)C1`: the “% Inhibition” value is recorded as -5% and the Z score worked out at 0.72.

For `Cc1nsc2ccc(O)c(Br)c12`, the “% Inhibition” value was -5% and the Z score was 0.6.

As to `CC(C(=O)NCC1CCCO1)S(=O)(=O)c1ccc(F)c(Cl)c1` (stereo not drawn), the “% Inhibition” value is recorded as 15% and the Z score is recorded as -1.98.

On to `Cc1ccc(NC(=O)c2ccc(S(=O)(=O)c3ccc(Cl)cc3)o2)cc1`, for which the “% Inhibition” value is recorded as -11% and the Z score was found to be 1.51.

Regarding `CCOC1CC(NS(C)(=O)=O)C1(CC)CC` (stereo not drawn), the “% Inhibition” value was 2% and the Z score is reported as -0.3.

As to `CC(C(=O)Nc1cc(C2CCCOC2)nn1C)c1cccs1` (stereo not drawn), the “% Inhibition” value was -4% and the Z score is given as 0.55.

With `CNC(=O)C1=CCN(C(=O)c2ccc(F)cc2F)CC1`, the “% Inhibition” value is recorded as -4% and the Z score worked out at 0.72.

As for `O=S(=O)(c1ccc(F)cc1)N1CCC[C@](CC2CC2)(c2noc(-c3ccncc3)n2)C1`, the “% Inhibition” value came out at 2% and the Z score is given as -0.26.

As to `CNc1ncc(C(=O)Nc2ccc(OCc3cccnc3)cc2)s1`, the “% Inhibition” value is given as -17% and the Z score is recorded as 1.9.

With `Cn1nnc2cc(-c3noc([C@H]4CC(=O)N(C5CCCC5)C4)n3)ccc21`, the “% Inhibition” value is reported as -18% and the Z score is given as 1.66.

As to `CCNc1cc(CNC(=O)Nc2cc(CC)nn2C)ccn1`, the “% Inhibition” value is recorded as 7% and the Z score was -1.24.

For the molecule `Cc1[nH]nc(-c2ccc(C(C)(C)C)cc2)c1NC(=O)COc1ccccc1`, the “% Inhibition” value is recorded as -5% and the Z score was found to be 0.83.

Consider `Cn1nccc1C=Cc1nc2cnccc2c(=O)[nH]1`, for which the “% Inhibition” value is reported as -14% and the Z score worked out at 2.2.

`C[C@@H](Cc1cccs1)C(=O)NCCC(=O)N1CCCCCC1`: the “% Inhibition” value is reported as -7% and the Z score turned out to be 1.08.

On to `O=C(NCc1ccco1)[C@H]1CCC(F)(F)C1`, for which the “% Inhibition” value is -11% and the Z score turned out to be 1.54.

As to `CCc1ccccc1N(C)S(=O)(=O)c1cc(-c2c(C)nn3c2NC(=O)CCC3=O)ccc1OC`, the “% Inhibition” value is -9% and the Z score was 1.05.

As for `COc1ccc(C(=O)N[C@H]2CC[C@]3(C)CCC([C@H](C)C(=O)N4CCC(C)CC4)[C@H](O)[C@H]3[C@@H]2C)cc1` (stereo partly drawn), the “% Inhibition” value was -7% and the Z score stood at 1.04.

`CCCOc1ccnc(CC(=O)NCc2nccs2)n1`: the “% Inhibition” value was -2% and the Z score is 0.28.

Regarding `CCN(CC)CC(=O)Nc1ccc(S(N)(=O)=O)cc1`, the “% Inhibition” value is -7% and the Z score was determined as 0.95.

With `CC(C)(C)CC(C)(C)Nc1c(-c2ccccn2)nc2ccc(Br)cn12`, the “% Inhibition” value is reported as 17% and the Z score is -2.11.

For `O=S(=O)(CCN1CCC[C@H]1c1ccsc1)c1ccccc1`, the “% Inhibition” value was -11% and the Z score was 1.39.

As for `O=C(C1Cc2ccccc2N1)N1CCCC(CO)C1` (stereo not drawn), the “% Inhibition” value worked out at 3% and the Z score was -0.45.

Regarding `CCN1CCN(c2nc(Nc3ccccc3)c3nccnc3n2)CC1`, the “% Inhibition” value is -2% and the Z score is recorded as 0.28.
